This passage reports cytotoxicity call results from the antibiotic and cytotoxicity screens of Wong et al. (2023).

The list shows a part of the results.

In this assay the test system is HSkMC (human skeletal muscle cells). Nature of the assay: cytotoxicity call (relative viability < 0.9). The conditions noted are these: 10 µM.
Consider `C[C@@H]1CN([C@@H](C)CO)C(=O)c2cc(NC(=O)CCN3CCOCC3)ccc2O[C@@H]1CN(C)CC1CC1`, for which the cytotoxicity call was “inactive”.

On to `NNC(=O)c1c(O)c2c([nH]c1=O)CCCC2`, for which the cytotoxicity call is “inactive”.

With `CCCCCCCCCCCCCCCCOP(=O)([O-])OCC[N+](C)(C)C`, the cytotoxicity call is “inactive”.

Consider `Cc1ccc(S(=O)(=O)N(C)C[C@@H]2OCCCC[C@H](C)Oc3ccc(NC(=O)Cc4ccccc4)cc3C(=O)N([C@@H](C)CO)C[C@H]2C)cc1`, for which the cytotoxicity call is “inactive”.

As to `CC(C)(O)C#Cc1ccc([C@@H]2[C@@H](CO)N3CCCCN(S(C)(=O)=O)C[C@@H]23)cc1`, the cytotoxicity call was “inactive”.

Regarding `COc1ccc(CN(C)C[C@@H]2Oc3c(NC(=O)Nc4ccc(C(F)(F)F)cc4)cccc3C(=O)N([C@H](C)CO)C[C@@H]2C)cc1`, the cytotoxicity call was “inactive”.

On to `Cc1cc(O)c2c(c1)Cc1cccc(O)c1C2=O`, for which the cytotoxicity call was “inactive”.

Consider `NCC[C@@H]1CC[C@@H](NC(=O)Nc2ccc(F)cc2)[C@H](CO)O1`, for which the cytotoxicity call is “inactive”.

`C[C@H]1CCCCO[C@@H](CN(C)C(=O)Nc2cccc3ccccc23)[C@@H](C)CN([C@@H](C)CO)C(=O)c2cc(NS(=O)(=O)c3ccc(F)cc3)ccc2O1`: the cytotoxicity call is “inactive”.

As for `COc1ccccc1C#Cc1ccc2c(c1)O[C@H](CN(C)C(C)=O)[C@@H](C)CN([C@@H](C)CO)S2(=O)=O`, the cytotoxicity call is “inactive”.

For `C[C@H]1CCCCO[C@H](CN(C)C(=O)c2ccccc2)[C@@H](C)CN([C@@H](C)CO)C(=O)c2cc(NC(=O)C3CCCCC3)ccc2O1`, the cytotoxicity call was “inactive”.

Regarding `Cc1ccc(S(=O)(=O)N2C[C@@H](O)COC[C@H]3O[C@H](CC(=O)NCCN4CCCCC4)CC[C@@H]32)cc1`, the cytotoxicity call was “inactive”.

`C[C@@H]1CN([C@@H](C)CO)C(=O)c2cccc(NC(=O)c3cnccn3)c2O[C@H]1CN(C)S(=O)(=O)c1ccccc1`: the cytotoxicity call was “inactive”.

Take `COc1ccc(NC(=O)Nc2ccc3c(c2)CC(=O)N([C@@H](C)CO)C[C@@H](C)[C@H](CN(C)CC2CCCCC2)O3)cc1`: the cytotoxicity call is “inactive”.

For `C[C@@H]1CN([C@@H](C)CO)C(=O)c2cc(NS(=O)(=O)c3cn(C)cn3)ccc2O[C@@H]1CN(C)S(=O)(=O)c1cn(C)cn1`, the cytotoxicity call is “inactive”.

With `C[C@@H]1CN([C@H](C)CO)C(=O)c2cc(NC(=O)CCCN(C)C)ccc2O[C@@H]1CN(C)S(=O)(=O)c1ccc(F)cc1`, the cytotoxicity call is “inactive”.

On to `Cc1cc2nc(C(=O)NC[C@H]3CCCS(=O)(=O)C3)cc(-c3ccccc3Cl)c2c(C)c1-c1ccncc1`, for which the cytotoxicity call is “inactive”.

For `C[C@H]1CN([C@@H](C)CO)C(=O)c2cc(Br)cnc2O[C@@H]1CN(C)S(C)(=O)=O`, the cytotoxicity call is “inactive”.

Consider `COC[C@@H](C)Nc1ncnc2nc[nH]c12`, for which the cytotoxicity call was “inactive”.

As to `COc1cccc(NC(=O)N2C[C@@H](O)COC[C@H]3O[C@H](CC(=O)NCCCN4CCOCC4)CC[C@@H]32)c1`, the cytotoxicity call is “inactive”.

Regarding `COc1c(N2CCNC(C)C2)c(F)cc2c(=O)c(C(=O)O)cn(C3CC3)c12` (stereo not given), the cytotoxicity call was “inactive”.

As for `COc1ccccc1OCC(O)CN1CCN(CC(=O)Nc2c(C)cccc2C)CC1.Cl.Cl` (stereo not given), the cytotoxicity call is “inactive”.

Consider `C[C@H]1CN([C@@H](C)CO)C(=O)c2cc(NC(=O)Cc3cn(C)c4ccccc34)ccc2O[C@@H]1CN(C)S(=O)(=O)c1cn(C)cn1`, for which the cytotoxicity call was “inactive”.

On to `CC(C)CCN1CCc2nnc(CO)n2CC1`, for which the cytotoxicity call is “inactive”.

As for `COc1ccc(NC(=O)N(C)C[C@@H]2Oc3c(NS(=O)(=O)c4cn(C)cn4)cccc3C(=O)N([C@@H](C)CO)C[C@H]2C)cc1`, the cytotoxicity call was “inactive”.

Regarding `C[C@H]1CN([C@@H](C)CO)C(=O)c2cccc(NC(=O)Nc3ccc(F)cc3)c2O[C@@H]1CN(C)Cc1ccc(C(=O)Nc2ccccc2N)cc1`, the cytotoxicity call was “inactive”.

Regarding `CO[C@@H](CN(C)C(=O)c1ccccc1F)[C@@H](C)CN([C@H](C)CO)S(=O)(=O)c1ccc(Cl)cc1`, the cytotoxicity call is “inactive”.

Turning to `C[C@@H]1CN([C@H](C)CO)C(=O)c2cc(NS(=O)(=O)c3ccc(F)cc3)ccc2O[C@@H](C)CCCCO[C@@H]1CN(C)C(=O)CCC(F)(F)F`, the cytotoxicity call is “inactive”.

As to `COc1ccc(NC(=O)Nc2cccc3c2O[C@H](CN(C)Cc2ccc(Cl)c(Cl)c2)[C@H](C)CN([C@H](C)CO)C3=O)cc1`, the cytotoxicity call was “inactive”.

For the compound `C[C@@H]1CCCCO[C@H](CN(C)Cc2ccccc2)[C@@H](C)CN([C@@H](C)CO)C(=O)c2cc(NS(=O)(=O)c3ccccc3)ccc2O1`, the cytotoxicity call was “inactive”.

On to `Cc1cc(N)n2ncnc2n1`, for which the cytotoxicity call is “inactive”.

For the compound `Cn1ccnc1CN1CC[C@]2(COCCN(S(C)(=O)=O)C2)C1`, the cytotoxicity call was “inactive”.

Regarding `C[C@@H]1CN([C@@H](C)CO)C(=O)c2cc(NC(=O)Nc3cccc4ccccc34)ccc2O[C@@H]1CN(C)C(=O)Nc1ccc(F)cc1`, the cytotoxicity call is “inactive”.

`C[C@@H]1CN([C@H](C)CO)C(=O)c2cc(NC(=O)Nc3cccc4ccccc34)ccc2O[C@H]1CN(C)Cc1ccc(-c2ccccc2)cc1`: the cytotoxicity call was “inactive”.

Turning to `CCc1ccc(Nc2c3c(nc4ccccc24)CCC3)cc1`, the cytotoxicity call is “inactive”.

Regarding `Cc1noc(C)c1NC(=O)Nc1ccc2c(c1)C(=O)N([C@@H](C)CO)C[C@H](C)[C@@H](CN(C)Cc1ccncc1)OCCCC[C@H](C)O2`, the cytotoxicity call is “inactive”.

For `C[C@H]1CN([C@@H](C)CO)C(=O)Cc2cc(NC(=O)Nc3cccc4ccccc34)ccc2O[C@H]1CN(C)C(=O)Nc1ccc(C(F)(F)F)cc1`, the cytotoxicity call is “inactive”.

Consider `C[C@@H]1CCCCO[C@H](CN(C)C(=O)Cc2ccccc2)[C@@H](C)CN([C@H](C)CO)C(=O)c2cc(NC(=O)Cc3ccccc3)ccc2O1`, for which the cytotoxicity call is “inactive”.

In the case of `C[C@@H]1CCCCO[C@H](CN(C)S(=O)(=O)c2cccs2)[C@@H](C)CN([C@H](C)CO)C(=O)c2cc(NC(=O)Nc3cccc4ccccc34)ccc2O1`, the cytotoxicity call was “inactive”.

Take `C[C@H]1CN([C@@H](C)CO)C(=O)CCCn2nncc2CO[C@H]1CN(C)S(=O)(=O)c1cn(C)cn1`: the cytotoxicity call was “inactive”.
